Reference: publication PMC4336329 (PLoS ONE, 2015)
Among all 310,000 compounds or so, about 14,000 (4.5%) showed an effect of 50% or more. Effects have a minus sign here. The list shows a part of the results.

These molecules were tested against human ether-à-go-go-related gene (hERG) potassium channel (human, UniProt Q12809) (assay: primary screen, population patch clamp on CHO cells stably expressing hERG).
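Note: peak tail current of the secondary pulse compared with the same well before compound.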

human ether-à-go-go-related gene (hERG) potassium channel, sequence (Q12809 whole entry, looked up): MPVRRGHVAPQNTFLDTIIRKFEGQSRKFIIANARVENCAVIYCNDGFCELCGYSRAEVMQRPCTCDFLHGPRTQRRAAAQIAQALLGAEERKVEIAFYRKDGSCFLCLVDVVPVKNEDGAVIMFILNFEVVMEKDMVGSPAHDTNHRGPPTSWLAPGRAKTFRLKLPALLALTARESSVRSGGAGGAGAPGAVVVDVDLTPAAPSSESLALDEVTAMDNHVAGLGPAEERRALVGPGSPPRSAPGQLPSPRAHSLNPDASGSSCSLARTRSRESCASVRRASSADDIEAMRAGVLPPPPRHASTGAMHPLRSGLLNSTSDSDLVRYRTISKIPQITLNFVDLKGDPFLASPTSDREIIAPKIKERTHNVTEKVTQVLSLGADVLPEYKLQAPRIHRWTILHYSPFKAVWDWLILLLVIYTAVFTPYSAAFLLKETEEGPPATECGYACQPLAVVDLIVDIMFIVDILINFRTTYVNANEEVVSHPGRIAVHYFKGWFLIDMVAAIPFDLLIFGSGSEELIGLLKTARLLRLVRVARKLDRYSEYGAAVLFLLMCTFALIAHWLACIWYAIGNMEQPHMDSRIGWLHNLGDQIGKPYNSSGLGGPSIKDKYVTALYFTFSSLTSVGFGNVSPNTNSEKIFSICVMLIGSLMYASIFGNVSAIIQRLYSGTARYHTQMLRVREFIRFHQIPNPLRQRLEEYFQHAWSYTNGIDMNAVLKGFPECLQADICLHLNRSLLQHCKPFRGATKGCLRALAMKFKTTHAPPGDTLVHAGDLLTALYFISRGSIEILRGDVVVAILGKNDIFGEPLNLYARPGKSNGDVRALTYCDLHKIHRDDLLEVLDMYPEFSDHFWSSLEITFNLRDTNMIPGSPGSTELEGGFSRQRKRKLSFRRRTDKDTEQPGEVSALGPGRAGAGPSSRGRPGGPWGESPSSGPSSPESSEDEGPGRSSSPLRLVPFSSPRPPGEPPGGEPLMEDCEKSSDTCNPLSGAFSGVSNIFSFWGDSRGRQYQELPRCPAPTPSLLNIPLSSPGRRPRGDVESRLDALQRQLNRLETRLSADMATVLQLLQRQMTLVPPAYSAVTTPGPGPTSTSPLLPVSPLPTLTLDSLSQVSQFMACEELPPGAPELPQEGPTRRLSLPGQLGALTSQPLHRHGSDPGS

Structure (SMILES)	hERG current change (%, negative = inhibition) at 10uM [%]
CCN(CC)CCCOc1ccc(C)cc1Br	-69
CCn1c(-c2cc(Br)ccc2O)n[nH]c1=S	14
Cc1nc2scc(C)n2c(=O)c1S(=O)(=O)N1CCN(c2ccccc2)CC1	-26.3
O=C(CCNC(=O)c1ccccc1Cl)NC1=NCCS1	6.15
O=S(=O)(c1ccccc1)N1CCN(Cc2cccc(Br)c2)CC1	-1.71
CCCCCCN=C(C)c1c(O)n(CCCC)c(=O)[nH]c1=O	-8.21
CC(NC(=O)c1cc(F)c(F)c(F)c1F)c1ccc(-n2ccnc2)cc1 (stereo not shown)	-65.2
Cc1cc(C)cc(Oc2coc3cc(OC(=O)c4cccnc4)ccc3c2=O)c1	10.7
CC(=O)Nc1ccc(S(=O)(=O)NC(C)C(=O)NCC(c2ccco2)N2CCCCC2)cc1 (stereo not shown)	-0.15
COc1ccc(CNC(=O)c2ccc(SC)cc2OC)cc1	-4.44
CCOC(=O)C1=C(CN2CCN(C(=O)OCC)CC2)NC(=O)NC1c1ccc2c(c1)OCO2 (stereo not shown)	-18.4
COC(=O)c1cc2n(n1)CCCNC2=O	31.8
COCCCN(C(=O)CCOc1ccccc1C)c1c(N)n(Cc2ccccc2)c(=O)[nH]c1=O	-3.05
Cn1c2c(c(=O)n(C)c1=O)CN(CCN1CCNCC1)CN2	-10.1
CCCCOCC(O)CCc1n[nH]c(=S)n1-c1ccccc1 (stereo not shown)	23.5
CCCCn1c(O)c(C(CC)=NCc2ccco2)c(=O)[nH]c1=O	-35.4
O=C1c2ccccc2C(=O)N1c1cccc(-c2nc3ccccc3o2)c1	6.77
[N-]=[N+]=NCCN1CCN(CCc2ccccc2)CCC1=O	9.16
COc1cc(NC(=O)CC(C)S(=O)(=O)c2cc3c(cc2C)NC(=O)CO3)cc(OC)c1OC (stereo not shown)	4.92
O=C(CCNS(=O)(=O)c1ccc(Br)cc1)NC1CCN(Cc2ccccc2)CC1	-61.9
COc1cc(OC)c(C2SCCS2)c(OC)c1	2.14
CCOC(=O)c1c(NC(=O)CCCN2CCOCC2)sc2c1CC(C)(C)OC2	-9.14

Structure (SMILES)	hERG current change (%, negative = inhibition) at 10uM [%]
COc1cc2c(C(=O)N3CCN(c4ccccc4)CC3)c(C)oc2cc1Br	-0.66
CCOC(=O)c1c(C)[nH]c(C)c1S(=O)(=O)N1CCOCC1	13.8
CN(CCOc1ccc(CC2SC(=O)NC2=O)cc1)c1ccccn1.O=C(O)/C=C\C(=O)O (stereo not shown)	5.05
O=C(C1CCCN(c2nnc(-n3cccc3)s2)C1)N1CCC2(CC1)OCCO2 (stereo not shown)	1.29
O=C(Nc1ccccc1Cl)Nc1ccnn1C1CCN(C(=O)CCN2CCCO2)CC1	11.8
O=C1C2C3C=CC(C3)C2C(=O)N1CNc1ccccc1 (stereo not shown)	11.6
O=C(NCc1ccccc1)c1cc(-n2cnnc2)ccc1Cl	-5.75
O=C(Cn1cnc2sc3c(c2c1=O)CCCC3)NCC(=O)Nc1c(F)cccc1F	5.5
OC1c2cc(Br)ccc2N=C2CCCN21 (stereo not shown)	7.01
COc1ccc(-n2c(Cn3c(=O)sc4ccccc43)nnc2SCC(=O)N2CCOCC2)cc1	-13.5
CC(C)N1CC(O)=C(c2nc3ccccc3[nH]2)C1=N	-11.1
CC1CCCN(CCOCCOc2ccc(Cl)cc2Br)C1.O=C(O)C(=O)O (stereo not shown)	-61.1
Cc1cc(C)c2cc(C#N)c(SCC(=O)Nc3ccc4c(c3)OCO4)nc2c1	5.11
COc1cccc(C(=O)NCC(=O)OCC(=O)C(C)(C)C)c1	11.2
COCCNC(=O)c1ccccc1NC(=O)COc1ccccc1	-12.4
COc1ccc(NC(=O)N/C=C/c2ccco2)cc1	30.3
CC(=O)O.CNc1nc(N/N=C/c2cc3c(cc2[N+](=O)[O-])OCO3)nc(Nc2ccccc2)n1	10.8
Cc1nc(SCC(=O)NCC(F)(F)F)c2c(-c3cccs3)csc2n1	0.503
CC(C)OC(=O)CCCNc1ccc([N+](=O)[O-])cc1[N+](=O)[O-]	-41.4
O=C(CSc1nnnn1-c1ccccc1)Nc1ccccc1	11.8
OCCN1CCN(c2ncnc3sc(-c4ccccc4)cc23)CC1	-24.2
COc1ccccc1NC(=O)c1cn(CCC#N)nc1-c1cccc(Cl)c1	-4.86

Structure (SMILES)	hERG current change (%, negative = inhibition) at 10uM [%]
Cc1ccc2cc(CN(Cc3cccs3)Cc3nnnn3CC3CCCO3)c(=O)[nH]c2c1 (stereo not shown)	-18.6
COc1ccccc1CNC(=O)N1CCN(c2ccccc2Cl)CC1	12.9
COc1ccc(-c2csc(NC(=O)c3ccc(S(C)(=O)=O)cc3)n2)cc1	2.97
CCCC(=O)c1ccc(N2CCN(S(=O)(=O)c3ccccc3)CC2)c(F)c1	7.98
Cc1ccc(NC(=O)C(=O)N2CCCC2)cc1Cl	19.5
O=C(NCCNC(=O)c1cc(OCC(F)(F)F)ccc1OCC(F)(F)F)Nc1cccc(C(F)(F)F)c1	-21.8
O=C(Nc1cccc([N+](=O)[O-])c1)Nc1ccc2c(c1)CCC2	14.4
CN(C)S(=O)(=O)c1ccc(Cl)c(NC(=O)COC(=O)CN2C(=O)C3CCCCC3C2=O)c1 (stereo not shown)	6.74
O=C(O)c1ccc(COc2ccccc2/C=C2/NC(=O)N(c3cccc(Cl)c3)C2=O)cc1	13
CCOc1ccccc1CNC(=O)C1CCC(=O)N1C(C)C (stereo not shown)	1.56
COc1cc(C(=O)N[C@H](C(=O)NC(C)C23CC4CC(CC(C4)C2)C3)C(C)C)cc(OC)c1OC (stereo partly shown)	7.07
Cc1ccc(-n2c(=S)[nH]c3c(oc4ccccc43)c2=O)cc1	14.8
Cc1cccc(C)c1NC(=O)c1ccccc1C(=O)O	11.5
CCOC(=O)C1=C(C)NC(=O)NC1c1ccc(-c2ccc(F)cc2)o1 (stereo not shown)	-1.72
CN(C)S(=O)(=O)c1ccc(/C(O)=C2/C(=O)C(=O)N(Cc3cccnc3)C2c2cccs2)cc1 (stereo not shown)	5.83
Fc1ccccc1Cn1nnc2c(NCc3ccccn3)ncnc21	-11.2
CC(C)[C@H](NS(=O)(=O)c1ccc(Cl)cc1)C(=O)OCC(=O)c1c(N)n(C)c(=O)n(C)c1=O	-39.9
O=C(CN(c1ccc(F)cc1)S(=O)(=O)c1ccc2c(c1)OCCO2)N1CCOCC1	-6.5
CS(=O)(=O)c1ccc(NCC2CCCO2)c([N+](=O)[O-])c1 (stereo not shown)	9.48
CCOc1cc2c3c(c1)C1(Nc4ccccc4S1)C(=O)N3C(C)(C)CC2C (stereo not shown)	10.4
CCCc1cc(=O)oc2c3c(cc(OCC(=O)NCCCn4ccnc4)c12)OC(C)(C)CC3	-73.9
O=c1c(-c2ccccc2)cnc2n1CCS2	-13.5

Structure (SMILES)	hERG current change (%, negative = inhibition) at 10uM [%]
Cc1ccc(S(=O)(=O)NC(=NC2CCCCC2)c2ccccc2)cc1	-55.2
Fc1cccc(Nc2ncnc3c2cnn3-c2ccccc2)c1	12.1
Cc1ccc2[nH]c3c(=O)n(CC(=O)NCc4ccco4)ncc3c2c1	21.9
Cc1cc(C)cc(N2C(N)=NC(N)=NC2c2ccccc2F)c1.Cl (stereo not shown)	10.9
CCC(=O)Nc1nnc(SCCN2CCOCC2)s1.Cl	14.5
Clc1ccc(CSc2ccc(-c3ccco3)nn2)cc1	19.1
c1ccc(Cn2cnc3ccccc32)cc1	14.6
COc1cccc(-c2nc(CS(=O)(=O)CC(=O)N3CCN(c4ccccn4)CC3)c(C)o2)c1	-37.9
COc1ccc(N(C(=O)C(C)C)S(=O)(=O)c2ccc(Cl)cc2)cc1	-20.6
O=C(COC(=O)c1ccc(Br)o1)Nc1ccc2[nH]c(=O)[nH]c2c1	9.74
CC(=O)c1ccc(NC(=O)Nc2ccccc2)cc1	-2.03
O=C(C(=O)N1CCCc2ccccc21)c1c[nH]c2ccccc12	4.5
Cc1ccsc1C(=O)N1CC(=O)Nc2ccccc21	6.74
O=C(COc1ccccc1F)N1CCc2ccccc2C1	-25
Cc1ccc(S(=O)(=O)N2CCN(C(=O)CSc3nncs3)CC2)cc1	-6.21
COc1ccccc1CN(Cc1cc2cc(C)ccc2[nH]c1=O)Cc1nnnn1CC1CCCO1 (stereo not shown)	-18.8
CC(C)c1ccc(S(=O)(=O)N2CCN(C(C)C(=O)NC3CCCC3)CC2)cc1 (stereo not shown)	-75.5
C=CCSc1nc(N)c(C(=O)Nc2ccccc2OC)cc1C(=O)Nc1ccccc1	-3.02
COc1ccc(C(=O)OCC(=O)c2c(N)n(C)c(=O)n(C)c2=O)cc1OC	17.4
CCOc1ccc2nc(NC(=O)CN3CCN(C)CC3)sc2c1	-15.7
COc1cccc(NC(=O)c2nn(C34CC5CC(CC(C5)C3)C4)cc2[N+](=O)[O-])c1	-10.1
O=C(c1ccc(Cl)cc1)N1CCN(S(=O)(=O)/C=C/c2ccccc2)CC1	-54.8
